# From the supplement of paper PMC12632987
# Over roughly 1,800 sequences, “median log2 fold change of GCK-ALFA target abundance (FLAG IP / Myc IP barcode read proportion)” has its median near 0.14; the lowest 2% begin near -0.84. This is one part of the list.
# T1: TRAF2, Q12933
# T1 chain: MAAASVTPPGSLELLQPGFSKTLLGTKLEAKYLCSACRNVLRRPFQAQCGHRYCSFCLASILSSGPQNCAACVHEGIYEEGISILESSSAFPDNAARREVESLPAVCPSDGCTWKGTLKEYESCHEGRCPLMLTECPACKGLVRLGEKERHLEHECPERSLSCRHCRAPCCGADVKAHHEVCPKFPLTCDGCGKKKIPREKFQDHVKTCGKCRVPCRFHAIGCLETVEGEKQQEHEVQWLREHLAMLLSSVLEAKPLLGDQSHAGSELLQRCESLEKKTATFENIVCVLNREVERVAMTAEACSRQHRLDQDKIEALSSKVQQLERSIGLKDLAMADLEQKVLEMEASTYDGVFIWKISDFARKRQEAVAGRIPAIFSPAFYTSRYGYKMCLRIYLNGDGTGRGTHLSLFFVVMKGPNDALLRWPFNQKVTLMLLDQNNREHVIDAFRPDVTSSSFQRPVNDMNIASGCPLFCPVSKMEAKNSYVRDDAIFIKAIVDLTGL
# B1: traf2_out_11_169_889 (protein)
# chain: AEAEKNRKIIDKALELNDKAREELRAYALALAREAGLDVAAVEAIFAANAGKSLSAVAAALIAHFRAQGAEAAAAAVEAKHEELKEKINKEMTEFIKSLE
# B2: traf2_out_17_162_1510 (protein)
# chain: SPVEALEARFRAELAALREELERLKKKTENLEKMSKEEITDLLVEASEARRRARALAEEVARHASLLGEERAAALRAEAEAIAEELQRIANKAYKELEKK
# B3: traf2_out_17_162_1617 (protein)
# chain: MSIEEKLKKLKEELEKLKKELEELKKKLENIDKLSKEELTDLLVEASEAKRKARQAIVELEKLKGEIDKKTYEELKKEFEKLAEEFQKLANKFYKKLEEL
# B4: traf2_out_6_156_2378 (protein)
# chain: MKEKILEEAKKEIKELIKKLAEASEEKKIKYISRIAGAVYRALQKLREAGASVEEIKEAVEELKETAEKEAKKAGLPQDTIDLLLSSINAVGEVALREAE
# B5: traf2_out_18_76_1958 (protein)
# chain: HMTPEERLAELEAKIEEVRERYQRVATRALKLLPKLSPEDRSKVMDLLADASEALRKAELALEEAKRTGKLEEKEKEINEQLKKAEEKIEELEKLVEELE
# B6: traf2_out_20_3_2239 (protein)
# chain: SELEEELERELERARRLLEELAPLLPAEDAARLRALLEEAERLYKTDYTDALVALSELRRAALELAERARAAGDEETAARLEELADEVGRAMQLVYKIIE
# B7: traf2_out_5_63_2363 (protein)
# chain: SEREELTALAREADKLVRELLEAAKAGDEAKVEALIARAVADPELARLVLGILKGEAKYYELLGDKPEEAKIAKELAERLEAARAAAAAARAAAAAAAAA
# B8: traf2_out_17_178_1719 (protein)
# chain: SKEEYRKKISELTDKLIDLSEEAAEKLLELAEKEGKLTPEELAALREARRRGSNNDVLALGEKIAPKLSSKEEAEKLIEEFKKKSKELSKKIAEAYEKYE
# B9: traf2_out_8_15_2559 (protein)
# chain: SLEEAAKKDLEKLKAASDGDEKTFVNFVIGFAKGELRLAKIYLEEGNKELARKTLEYAKALMEEALKYLKEKKSKYLPTLEKAAEELKKEAEKIEKEIKK
# B10: traf2_out_17_60_1762 (protein)
# chain: SAEEEAERLKEEARRAIEEAEELVERVDKKLEAGTLTADEAMDYLVELSERRRRLEALREKLKAKGPEFAPLVEEIERAIERIRRTMNRVGKKLEELLAA
# B11: traf2_out_6_156_2438 (protein)
# chain: SVEEILAATKAELKELIKALAKASEERKIFYINRIAGTVYRGLQALRDGGASLEELRAFAEELKAFLKEAADAAGLDEDTKNLLLSSMNAVFDVALASAA
# B12: traf2_out_17_178_1702 (protein)
# chain: SKEEIRKKISELTDELIDLSEEYGRRLLALARAEGVLSPEELAALEAALASGSNRTLLATARELLPRSAASPELLALLAEFEEEYRRISKKIAEAYEKYE
# B13: traf2_out_5_189_2329 (protein)
# chain: SSAEEERKELTEKAKELAERARKLIKELLEKGKSHEEIKEELLKELEKLSIEDAQLYLGIAYAILLNIADVNNDEELREAAKELREEGLKLIEERRKEEA
# B14: traf2_out_20_3_2144 (protein)
# chain: EELEKELEKELEEALKILKEASKKADPETAKKLDALAKELEASKSLSYSDQLVVVSKVRREVLLLSQQAKAAGDEELAKLLEEAADELNEAANLLMKIIE
# B15: traf2_out_11_169_843 (protein)
# chain: AEREKNRAINDHALELNDKAKEELKEFAKKLAKEAGLDVEEIDKIFEKNKGKSFSYIAGSLIDYFTSKGKEDAAKKVLEKYEELKEKINKESTAFIKSLE
# B16: traf2_out_20_3_2053 (protein)
# chain: EELEKEAEKEFKKLKAKLEEIKKLVDPETAAKLEAALAEVEEAKKKGYEEALIATSKLRRLLLELAEEARKEGKEEVAKLLEEAAEYAQKLMNIIYKIIE
# B17: traf2_out_1_156_900 (protein)
# chain: SASDEQYEKLKKKLHQPEYSALLRRAAGALADIVDLLEEAKAAGAPEEVLERLEELRREAERLLSQLVSDPNLTLEEARRLAEEIEELRREAEELVREWR
# B18: traf2_out_15_180_1333 (protein)
# chain: HMSEEEKKMIEVANEIVDKSEEKAKELAEKRGLDLATVLAISRQITSAAQRELGLGDFDQAKEDIAQIIAQVPEEYREAVTELAEYILKLVKEKYEELKK
# B19: traf2_out_6_166_2473 (protein)
# chain: DAEIRARIREVVKEFSKYSPEDIIEAFEKVAKERSDHRALMARQLASGVRQGQKAGLPVETIISAFADGMLALGVPPEDILALLEEILEEVKKIVAEKKA
# Target: T1, TRAF2, Q12933
# Assay: median log2 fold change of GCK-ALFA target abundance (FLAG IP / Myc IP barcode read proportion) (log2 ratio); each designed protein is fused to an ALFA-tag nanobody in HEK293 cells to bring the named protein to FLAG-tagged glucokinase (GCK); Myc marks an untargeted standard; higher = target protein stabilised (more abundant)
# Settings: target protein: 3xFLAG-MCP-GCK-ALFA reporter; HEK293 landing pad (RPLP)
# Procedure, shortened: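 HEK293 landing-pad cells received a recombined binder library fused to the ALFA nanobody and were induced with 2 μg mL^−1 doxycycline, then transfected with a plasmid encoding a FLAG-tagged target and a Myc-tagged standard. Lysates were collected after 48 h for anti-FLAG and anti-Myc immunoprecipitation, and the circular RNA barcodes were reverse transcribed, amplified and sequenced. Target abundance for each binder is the median log2 ratio of FLAG to Myc barcode read proportions. Barcodes had to reach a proportion of at least 10^−7 in both replicates, each binder needed at least 3 barcodes per replicate, a pseudocount of 10^−6 was applied, and the two replicates were pooled.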
row,Binder,median log2 fold change
1,B1,0.371
2,B2,0.111
3,B3,0.106
4,B4,0.148
5,B5,-0.505
6,B6,0.263
7,B7,-0.28
8,B8,0.405
9,B9,-0.0917
10,B10,0.153
11,B11,-0.0848
12,B12,0.188
13,B13,0.322
14,B14,0.301
15,B15,0.0832
16,B16,0.328
17,B17,-0.0243
18,B18,0.451
19,B19,0.1
